# Measured values reported in paper PMC4336329 (PLoS ONE, 2015).
# The whole screen tested about 310,000 compounds, of which about 14,000 (4.5%) showed an effect of 50% or more. Effects have a minus sign here. The list shows a part of the results.
# Target: human ether-à-go-go-related gene (hERG) potassium channel (human, UniProt Q12809)
# Experiment: primary screen, population patch clamp on CHO cells stably expressing hERG
# 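Further: peak tail current of the secondary pulse compared with the same well before compound.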
# human ether-à-go-go-related gene (hERG) potassium channel, sequence (Q12809 whole entry, looked up): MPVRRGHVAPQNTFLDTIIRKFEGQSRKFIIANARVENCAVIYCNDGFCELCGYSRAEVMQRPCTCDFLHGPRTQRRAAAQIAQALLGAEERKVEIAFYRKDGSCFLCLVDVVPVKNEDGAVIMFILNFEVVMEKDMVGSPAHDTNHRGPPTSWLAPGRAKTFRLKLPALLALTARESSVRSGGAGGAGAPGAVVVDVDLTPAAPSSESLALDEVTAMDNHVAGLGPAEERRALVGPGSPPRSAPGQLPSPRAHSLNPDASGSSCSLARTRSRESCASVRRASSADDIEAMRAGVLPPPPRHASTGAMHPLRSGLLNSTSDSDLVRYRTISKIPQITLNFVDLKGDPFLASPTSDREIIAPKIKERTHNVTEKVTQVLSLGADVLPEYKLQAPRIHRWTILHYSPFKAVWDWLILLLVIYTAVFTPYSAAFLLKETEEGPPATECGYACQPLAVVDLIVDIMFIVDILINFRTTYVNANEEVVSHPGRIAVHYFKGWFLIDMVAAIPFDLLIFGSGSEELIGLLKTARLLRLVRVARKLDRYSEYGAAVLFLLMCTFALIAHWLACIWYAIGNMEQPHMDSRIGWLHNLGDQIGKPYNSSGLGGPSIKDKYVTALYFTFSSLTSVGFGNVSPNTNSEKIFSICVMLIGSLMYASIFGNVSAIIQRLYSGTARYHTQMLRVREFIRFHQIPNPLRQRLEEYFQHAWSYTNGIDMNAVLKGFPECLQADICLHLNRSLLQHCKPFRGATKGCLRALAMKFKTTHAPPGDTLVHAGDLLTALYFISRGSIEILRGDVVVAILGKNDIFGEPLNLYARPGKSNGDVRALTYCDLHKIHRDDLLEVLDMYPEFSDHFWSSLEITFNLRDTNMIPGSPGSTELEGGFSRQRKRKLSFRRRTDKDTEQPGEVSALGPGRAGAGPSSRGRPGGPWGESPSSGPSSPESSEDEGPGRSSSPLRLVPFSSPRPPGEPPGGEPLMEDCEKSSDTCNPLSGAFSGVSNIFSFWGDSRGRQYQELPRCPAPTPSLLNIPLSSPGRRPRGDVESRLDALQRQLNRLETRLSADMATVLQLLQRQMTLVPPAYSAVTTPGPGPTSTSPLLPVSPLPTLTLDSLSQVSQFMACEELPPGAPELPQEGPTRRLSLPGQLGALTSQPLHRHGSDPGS
row,SMILES,"hERG current change (%, negative = inhibition) at 10uM [%]"
1,O=C(Nc1ccc(OCc2ccccc2)cc1)c1ccccc1,20.5
2,CCCCC1(C)OC(=O)C(=Cc2ccc(-c3ccc(Cl)c(C(=O)O)c3)o2)C(=O)O1 (stereo not shown),2.2
3,COc1ccc(NC(=O)Nc2cccc(C(F)(F)F)c2)cn1,3.61
4,CCCS(=O)(=O)N1CCCC(C(=O)NCc2ccco2)C1 (stereo not shown),10.8
5,COc1ccccc1NC(=O)COC(=O)COc1cccc2c1OC(C)(C)C2,-2.38
6,OCC(O)[C@@H](O[C@H]1O[C@H](CO)[C@@H](O)[C@H](O)[C@H]1O)[C@H](O)[C@@H](O)CO (stereo partly shown),21.8
7,COc1ccc(/C=C2\SC(=O)N(CC(=O)NN3CCN(C)CC3)C2=O)cc1OC,19
8,Cc1nc2ccc(NC(=O)Cc3ccccc3F)cc2s1,11.8
9,COc1ccc(NS(=O)(=O)NC(=O)c2c(C)n(C)c3ccccc23)cc1,17.8
10,Cc1cc(C)c2c(c1)/C(=c1/sc3n(c1=O)CN(c1ccccc1)CN=3)C(=O)N2,8.77
11,CC(Sc1nnc(COc2ccc(Cl)cc2)n1Cc1ccco1)C(=O)N1CCNC1=O (stereo not shown),-55.9
12,CC(C)(Cl)C1Cc2cc3ccc(=O)oc3cc2O1 (stereo not shown),-0.0503
13,C/C(=N\Nc1ccccn1)c1ccc(C(C)C)cc1,23.7
14,COc1ccc(S(=O)(=O)N2CC(C)N(C(=O)N3CCOCC3)C2)cc1 (stereo not shown),16.8
15,O=C1c2nc3cc(-c4ccccc4)[nH]n3c(=O)c2CN1Cc1ccccc1,14
16,CN(C)c1ccc(CN(C(=O)c2ccc(Cl)c([N+](=O)[O-])c2)C2CCS(=O)(=O)C2)cc1 (stereo not shown),1.05
17,Cc1c(NC(=O)Nc2ccc(F)cc2F)c(=O)n(-c2ccccc2)n1C,-26.6
18,O=C(Nc1cccc(C(F)(F)F)c1)c1c(O)c2ccccc2[nH]c1=O,16
19,O=C(N[C@H]1CP(=O)(Oc2ccccc2)O[C@H](COCc2ccccc2)[C@H]1O)C(Cl)(Cl)Cl (stereo partly shown),-2.22
20,Cc1ccc(NC(=O)COC(=O)CC2SC(N3CCCC3)=NC2=O)cc1 (stereo not shown),6.65
21,CCCCc1cc(=O)oc2c(C)c(OCC(=O)NCc3ccccn3)ccc12,-49.3
22,Nc1cc2c(cc1Cl)N(Cc1ccccc1)C(=O)CO2,2

row,SMILES,"hERG current change (%, negative = inhibition) at 10uM [%]"
1,CC1(c2ccc3ccccc3c2)NC(=O)N(CC(=O)Nc2cccc(S(=O)(=O)N3CCOCC3)c2)C1=O (stereo not shown),23.8
2,COCCn1ccc2c(OCC(=O)Nc3cc(OC)ccc3OC)cccc2c1=O,-14.3
3,O=C(Nc1ncc2c(n1)-c1ccccc1CC2)C1CC1,11.8
4,CCCCn1c(N)c(N(CCOC)C(=O)c2cc3c(s2)CCC(C)C3)c(=O)[nH]c1=O (stereo not shown),9.36
5,O=S(=O)(Nc1ccc(-c2ccc(N3CCOCC3)nn2)cc1)c1ccc(Cl)c(Cl)c1,-14.4
6,COC(=O)/C=C1\S/C(=N/N=C/c2ccco2)NC1=O,10.9
7,COc1ccc(-n2c(=S)[nH]c3cc(C(=O)NCCCN4CCOCC4)ccc3c2=O)cc1,14.9
8,CCOC(=O)Cn1c(-c2ccccc2)cc(SC)c(C#N)c1=O,24.8
9,CCCCN(C(=O)CSc1nncn1-c1ccccc1OC)c1c(N)n(Cc2ccccc2)c(=O)[nH]c1=O,16.7
10,O=C(COc1ccccc1)Nc1ccc(NC(=O)c2ccco2)cc1,4.15
11,Cc1nc2ccccc2c2oc(C(=O)N3CC(C)CC(C)C3)cc12 (stereo not shown),-23.2
12,CCOc1ccc(NC(=O)COC(=O)c2c(OC)cccc2OC)cc1,-1.27
13,COc1cccc(N2CC(NC(=O)c3cccc4ccccc34)CC2=O)c1 (stereo not shown),-6.44
14,Cn1c(=O)c2c(nc(NCc3ccco3)n2CC(O)CO)n(C)c1=O (stereo not shown),22.1
15,COc1ccccc1CNC(=O)CCc1ccccc1,2.65
16,CCCCn1c(=O)n(CC(=O)NCc2ccc(C)cc2)c(=O)c2c1nc(CO)n2CCC,-36.1
17,COc1cc(NC(=S)Nc2ccc(S(=O)(=O)N3CCOCC3)cc2)cc(OC)c1OC,10.6
18,c1ccc(CSc2ncn[nH]2)nc1,14.3
19,CCCOc1ccc(NC(N)=O)cc1OCCC,-4.7
20,O=C(Cc1ccccc1)Nc1cccc(S(=O)(=O)N2CCCCCC2)c1,-49.1
21,O=C(O)CCC(=O)NC1CCCCCCC1,12.5
22,O=c1c([N+](=O)[O-])cc(C(F)(F)F)cn1Cc1cccc(Cl)c1,-10.1

row,SMILES,"hERG current change (%, negative = inhibition) at 10uM [%]"
1,CCCn1c(-c2cccs2)nc2nc3ccccc3nc21,-10.5
2,Cn1c(CCNC(=O)c2cccs2)n[nH]c1=S,23.1
3,CC1CCC(C(=O)NNC(=O)c2cc(-c3ccco3)[nH]n2)CC1 (stereo not shown),-4.58
4,CN(C)CCOc1ccc(C(C)(C)c2ccccc2)cc1.O=C(O)C(=O)O,23.2
5,COc1ccc(/C=C(/NC(=O)c2ccccc2)C(=O)NCCN2CCOCC2)cc1OC,11.6
6,Cc1nn2c(=O)cc(COC(=O)c3c(F)cccc3Cl)nc2s1,-11.1
7,Cc1ccnc(NC(=O)CCC(=O)N(Cc2ccco2)C(C(=O)NC(C)C)c2ccc(F)cc2)c1 (stereo not shown),-5.49
8,CCn1c(SCC(=O)c2ccccc2)nc2sc3c(c2c1=O)CCN(C)C3,-3.77
9,CN1CCCN(C(=O)COc2ccccc2)CC1,8.8
10,COc1ccc([C@H]2CC(=O)C=C(c3ccc4c(c3)OCO4)C2)cc1OC,-3.35
11,O=C(NCc1csc2ccc(Cl)cc12)Nc1cccc2ccccc12,11.1
12,Cc1cccc(C2CC3(CC(C)(C)NC(=S)N3)Oc3cc(O)ccc32)c1 (stereo not shown),9.25
13,O=[N+]([O-])c1cnccc1NC1CCCCC1,5.48
14,CCOc1ccc(NC(=O)c2nn(C)cc2Br)cc1,-16.1
15,CCCn1c(C)nc2cc(Cl)c(N3CCN(c4nc(-c5ccc(C)cc5)cs4)CC3)cc21,-2.29
16,CC(C)(C)N1C(=O)[C@H]2[C@@H](c3ccc(Br)cc3)N3C(=O)N(c4cccc(F)c4)C(=O)[C@@]3(Cc3ccccc3)[C@H]2C1=O,2.4
17,Cc1ccc(OCc2ccc(C(=O)NN)o2)c([N+](=O)[O-])c1,1.58
18,CN(c1ccc(C(=O)NCCc2ccccc2)cc1)S(C)(=O)=O,4.46
19,CC(C)[C@H](NC(=O)N1CCn2c1nc1ccccc12)C(=O)NCCc1ccccc1,6.76
20,Cc1ccc(-c2nnc(-c3cccnc3)o2)cc1,-3.7
21,O=C(Cn1c(=S)nc2ccccn21)N1CCc2ccccc2C1,-7.49
22,C=CCNC(=S)N1CCC(C(N)=O)CC1,20.2

row,SMILES,"hERG current change (%, negative = inhibition) at 10uM [%]"
1,Cc1csc(NC(=O)C2CC(=O)N(c3ccc4c(c3)OCCO4)C2)n1 (stereo not shown),-11
2,CCOc1ncccc1C(=O)NCCc1ccc(OC)cc1,5.07
3,CSc1ccccc1NC(=O)c1c(Br)cnn1C,-1.39
4,O=C(NNc1ccccc1)Nc1ccccc1F,22.7
5,O=C(CN1CCCC1)Nc1cc(C(F)(F)F)cc(C(F)(F)F)c1,-17.9
6,O=C(Cc1ccccc1)N1CCN=C1SCc1ccc([N+](=O)[O-])cc1,-55.5
7,CCOC(=O)C1=CN(c2cccc(F)c2)C=C(C(=O)OCC)C1c1cc(OC)c(O)c([N+](=O)[O-])c1,-3.91
8,CC1=C(C(=O)OC(C)C)C(c2cccs2)C(C(=O)OC(C)C)=C(C)N1,0.453
9,COCCN(Cc1ccccc1)C(=S)Nc1ccc(OC(F)F)cc1,-69.8
10,COc1cccc(NC(=O)Nc2nccc(C)n2)c1,-9.3
11,CCCCSc1nnc([C@@H]2CCCN2C(=O)OC(C)(C)C)o1,-12.2
12,CCCCC(=O)OCC(=O)Nc1ccc(C)c(F)c1,14.6
13,CCOC(=O)N1CCN(C(c2ccc(C(C)C)cc2)c2sc3nc(C)nn3c2O)CC1 (stereo not shown),-17.8
14,CC(C)C(=O)Nc1ccc2c(c1)oc1ccccc12,5.96
15,Cc1cc(OCC(=O)NCCc2ccc(Cl)cc2)c2c(C)cc(=O)oc2c1,6.87
16,O=C(Nc1ccccc1)Nc1ccccc1C(=O)NCc1ccccc1,10
17,CCC(=O)Nc1ccc2c(c1)nc(CN1CCN(C(C)=O)CC1)n2C,-0.94
18,COc1ccc(N2CCOCC2)c(NC(=O)COc2cccc(C)c2)c1,-1.5
19,CCn1cc(C(=O)N(CCCN2CCOCC2)Cc2ccco2)c(=O)c2ccc(C)nc21,0.42
20,Cc1ccc(/C=C2\C(=O)NC(=O)N(CCc3ccc(F)cc3)C2=O)o1,17.1
21,C=Cc1ccc(N=Cc2c(O)ccc3ccccc23)cc1,15.4
22,CC1(c2nnc(-c3cccc(Cl)c3)o2)CC(c2cccc([N+](=O)[O-])c2)=NO1 (stereo not shown),-1.17
